Laboratory results published in patent US10501552B2, “Multivalent molecules comprising DR5-binding domains” (MacroGenics, Inc., priority 2015, dated 2019).

B1: DR5 mAb 1 × DR5 mAb 2 Fc diabody: bispecific tetravalent E-coil/K-coil Fc diabody, wild-type IgG1 Fc; chains SEQ ID NO:116 and 118 (protein)
chain 1: DIVLTQSPASLAVSLGQRATISCRASKSVSSSGYSYMHWYQQKPGQPPKVLIFLSSNLDSGVPARFSGSGSGTDFTLNIHPVEDGDAATYYCQHSRDLPPTFGGGTKLEIKGGGSGGGGKVQLQQSGAELVKPGASVKLSCKASGYTFTEYILHWVKQKSGQGLEWIGWFYPGNNNIKYNEKFKDKATLTADKSSSTVYMELSRLTSEDSAVYFCARHEQGPGYFDYWGQGTTLTVSSASTKGEVAACEKEVAALEKEVAALEKEVAALEKL[sequence of human IgG1 Fc with C220S (EU numbers) omitted]
chain 2: DIVMTQSHKFMSTSVGDRVSITCKASQDVNTAVAWYQQKPGQSPKLLIYWASTRHTGVPDRFTGSGSGTDYTLTIKSVQAEDLTLYYCQQHYITPWTFGGGTKLEIKGGGSGGGGEVKFLESGGGLVQPGGSLKLSCVASGFDFSRYWMSWVRQAPGKGLEWIGEINPDSNTINYTPSLKDKFIISRDNAKNTLYLQMTKVRSEDTALYYCTRRAYYGNPAWFAYWGQGTLVTVSAASTKGKVAACKEKVAALKEKVAALKEKVAALKE
modifications: First Polypeptide Chain of an Exemplary DR5 mAb 1 x DR5 mAb 2 Fc diabody; Second Polypeptide Chain of an Exemplary DR5 mAb 1 x DR5 mAb 2 Fc diabody
B2: DR5 mAb 2 × DR5 mAb 1 Fc diabody: bispecific tetravalent E-coil/K-coil Fc diabody, wild-type IgG1 Fc; chains SEQ ID NO:122 and 124 (protein)
chain 1: DIVMTQSHKFMSTSVGDRVSITCKASQDVNTAVAWYQQKPGQSPKLLIYWASTRHTGVPDRFTGSGSGTDYTLTIKSVQAEDLTLYYCQQHYITPWTFGGGTKLEIKGGGSGGGGEVKFLESGGGLVQPGGSLKLSCVASGFDFSRYWMSWVRQAPGKGLEWIGEINPDSNTINYTPSLKDKFIISRDNAKNTLYLQMTKVRSEDTALYYCTRRAYYGNPAWFAYWGQGTLVTVSAASTKGEVAACEKEVAALEKEVAALEKEVAALEKL[sequence of human IgG1 Fc with C220S (EU numbers) omitted]
chain 2: DIVLTQSPASLAVSLGQRATISCRASKSVSSSGYSYMHWYQQKPGQPPKVLIFLSSNLDSGVPARFSGSGSGTDFTLNIHPVEDGDAATYYCQHSRDLPPTFGGGTKLEIKGGGSGGGGKVQLQQSGAELVKPGASVKLSCKASGYTFTEYILHWVKQKSGQGLEWIGWFYPGNNNIKYNEKFKDKATLTADKSSSTVYMELSRLTSEDSAVYFCARHEQGPGYFDYWGQGTTLTVSSASTKGKVAACKEKVAALKEKVAALKEKVAALKE
modifications: First Polypeptide Chain of an Exemplary DR5 mAb 2 x DR5 mAb 1 Fc diabody; Second Polypeptide Chain of an Exemplary DR5 mAb 2 x DR5 mAb 1 Fc diabody

How the values were obtained:
HPAFII [1] = assay: MTS cell proliferation assay; assay type: cell-based; settings: HPAFII (Pancreas); no cross-linking antibody
Procedure: (§1) Cell lines obtained from ATCC were cultured under standard tissue culture conditions. Each cell line was plated at ˜2×10^4 cells/well (in 96-well plates), and incubated overnight in F12/DMEM media supplemented with 10% FBS. […] Cell viability was determined using Promega CellTiter 96® AQeous Non-Radioactive Cell Proliferation Assay (Cat # G5430) essentially as described in the manufacturer's instructions to assay the amount of soluble formazan produced by cellular reduction of the MTS, which is a measure of the number of viable cells in the culture. Briefly, MTS/PMS regent was added to the wells and the absorbance at 490 nm (referenced at […]) was read in a Molecular Devices ThermoMax microplate reader.
(§2) Similar studies were performed over a range of anti-DR5 mAb concentrations from ˜10^−3 nM to ˜10^2 nM. The data for COLO205 cells is provided in FIG. 13, and are representative of cell lines sensitive to the antibodies of the invention.
(§3) The cytotoxicity of tetravalent DR5-Binding Molecules of the present invention was investigated. […] His-tagged TRAIL (R&D systems) was used as a positive control.
(§4) Similar studies were performed over a range of anti-DR5 mAb concentrations from ˜10^−3 nM to ˜10^2 nM.

MDA-MB-231 = assay: MTS cell proliferation assay; assay type: cell-based; settings: MDA-MB-231 (Breast); no cross-linking antibody
Procedure: as §1, §2, §3, §4

SW48 = assay: MTS cell proliferation assay; assay type: cell-based; settings: SW48 (Colon); no cross-linking antibody
Procedure: as §1, §2, §3, §4

A549 [2] = assay: MTS cell proliferation assay; assay type: cell-based, human; settings: A549 (Lung); no cross-linking antibody
Procedure: as §1, §2, §3, §4

DU145 [3] = assay: MTS cell proliferation assay; assay type: cell-based, human; settings: DU145 (Prostate); no cross-linking antibody
Procedure: as §1, §2, §3, §4

LNCap [4] = assay: MTS cell proliferation assay; assay type: cell-based, human; settings: LNCap (Prostate); no cross-linking antibody
Procedure: as §1, §2, §3, §4

SKBR3 = assay: MTS cell proliferation assay; assay type: cell-based, human; settings: SKBR3 (Breast); no cross-linking antibody
Procedure: as §1, §2, §3, §4

SKMES = assay: MTS cell proliferation assay; assay type: cell-based, human; settings: SKMES (Lung); no cross-linking antibody
Procedure: as §1, §2, §3, §4

BT474 = assay: […]-GLO cell viability assay with vorinostat; assay type: cell-based; settings: BT474 (Breast); 1 μg/ml + 10 μM Vorinostat
HPAFII [5] = assay: […]-GLO cell viability assay with vorinostat; assay type: cell-based; settings: HPAFII (Pancreas); 1 μg/ml + 10 μM Vorinostat
A549 [6] = assay: […]-GLO cell viability assay with vorinostat; assay type: cell-based, human; settings: A549 (Lung); 1 μg/ml + 10 μM Vorinostat
ES2 = assay: […]-GLO cell viability assay with vorinostat; assay type: cell-based; settings: ES2 (Ovary); 1 μg/ml + 10 μM Vorinostat
22RV1 = assay: […]-GLO cell viability assay with vorinostat; assay type: cell-based; settings: 22RV1 (Prostate); 1 μg/ml + 10 μM Vorinostat
DU145 [7] = assay: […]-GLO cell viability assay with vorinostat; assay type: cell-based, human; settings: DU145 (Prostate); 1 μg/ml + 10 μM Vorinostat
LNCap [8] = assay: […]-GLO cell viability assay with vorinostat; assay type: cell-based, human; settings: LNCap (Prostate); 1 μg/ml + 10 μM Vorinostat
MDA-MB-175VII = assay: […]-GLO cell viability assay with vorinostat; assay type: cell-based; settings: MDA-MB-175VII (Breast); 1 μg/ml + 1 μM Vorinostat
NCI-N87 = assay: […]-GLO cell viability assay with vorinostat; assay type: cell-based; settings: NCI-N87 (Stomach); 1 μg/ml + 1 μM Vorinostat
Hs700T = assay: […]-GLO cell viability assay with vorinostat; assay type: cell-based; settings: Hs700T (Pancreas); 1 μg/ml + 1 μM Vorinostat
Calu3 = assay: […]-GLO cell viability assay with vorinostat; assay type: cell-based; settings: Calu3 (Lung); 1 μg/ml + 1 μM Vorinostat
SKOV3 = assay: […]-GLO cell viability assay with vorinostat; assay type: cell-based; settings: SKOV3 (Ovary); 1 μg/ml + 1 μM Vorinostat
PC3 = assay: […]-GLO cell viability assay with vorinostat; assay type: cell-based; settings: PC3 (Prostate); 1 μg/ml + 1 μM Vorinostat
breast cancer tissue = assay: tissue staining with labeled molecule; assay type: binding; settings: 0.625 μg/mL
From the text: (§5) The results presented in FIGS. 15A-15B, 16, and Table 10, thus indicate that a tetravalent DR5-Binding Molecule (bispecific for two epitopes of DR5) was capable of specifically binding to cancer cells.

colon cancer tissue = assay: tissue staining with labeled molecule; assay type: binding; settings: 0.625 μg/mL
From the text: as §5

lung cancer tissue = assay: tissue staining with labeled molecule; assay type: binding; settings: 0.625 μg/mL
From the text: as §5

[9] = tested on: normal tissue (colon, liver, lung, pancreas, kidney, heart); assay: tissue staining with labeled molecule; assay type: binding; settings: 0.625 μg/mL
From the text: as §5

prostate cancer tissue = assay: tissue staining with labeled molecule; assay type: binding; settings: 0.625 μg/mL
From the text: as §5

Lung = assay: histology staining (Table 10); assay type: binding; settings: 0.625 ug/mL
From the text: as §5

Pancreas = assay: histology staining (Table 10); assay type: binding; settings: Pancreas (6N); 0.625 ug/mL
From the text: as §5

Molecule	% Inhibition (Average) (HPAFII [1]) [%]	% Inhibition (Average) (MDA-MB-231) [%]	% Inhibition (Average) (SW48) [%]	% Inhibition (Average) (A549 [2]) [%]	% Inhibition (Average) (DU145 [3]) [%]	% Inhibition (Average) (LNCap [4]) [%]	% Inhibition (Average) (SKBR3) [%]	% Inhibition (Average) (SKMES) [%]	Net Gain (Average % Growth Inhibition) (BT474) [%]	Net Gain (Average % Growth Inhibition) (HPAFII [5]) [%]	Net Gain (Average % Growth Inhibition) (A549 [6]) [%]	Net Gain (Average % Growth Inhibition) (ES2) [%]	Net Gain (Average % Growth Inhibition) (22RV1) [%]	Net Gain (Average % Growth Inhibition) (DU145 [7]) [%]	Net Gain (Average % Growth Inhibition) (LNCap [8]) [%]	Net Gain (Average % Growth Inhibition) (MDA-MB-175VII) [%]	Net Gain (Average % Growth Inhibition) (NCI-N87) [%]	Net Gain (Average % Growth Inhibition) (Hs700T) [%]	Net Gain (Average % Growth Inhibition) (Calu3) [%]	Net Gain (Average % Growth Inhibition) (SKOV3) [%]	other results
B1	10.05	15.24	39.81	2.63	12.14	11.82	13.07	75.6	75.26	49.19	36.34	87.60	5.36	1.32	20.41	10.84	31.47	46.91	10.13	55.63	Net Gain (Average % Growth Inhibition) (PC3): 11.32%
B2	10.1	14.03	33.53	2.8	12.34	12.71	8.47	68.97	64.18	45.01	34.95	89.61	6.32	3.43	16.63	10.63	25.28	43.04	11.03	55.97	labeling of cells of breast cancer tissue (breast cancer tissue): strongly label; labeling of cells of colon cancer tissue (colon cancer tissue): strongly label; labeling of cells of lung cancer tissue (lung cancer tissue): strongly label; labeling of cells of normal tissue [9]: failed to label; labeling of cells of prostate cancer tissue (prostate cancer tissue): strongly label; histology observation (Lung; Lung (6N)): Macrophage 2+ (c) rare; endo 2+ (c); histology observation (Lung; Lung, three separate table lines): Endo 1+ (c) very rare; others (—); also recorded: Macrophage 3+ (c, m) occasional;; also recorded: Macrophage 3+ (c) occasional mixed; histology observation (Pancreas): Secreted acinar epi ± (c) very rare; Net Gain (Average % Growth Inhibition) (PC3): 10.22%

Entries after “also recorded” stand apart in the source; their conditions may differ.
